The campaign covered roughly 210,000 compounds. About 5,900 (2.8%) were called active. Inconclusive results, whose numbers are uncertain, are shown with a selection of clear calls. The call rests on the fitted dose curve; in most records, active means well fitted activation curve with a large enough effect; inconclusive means small, poorly fitted or top-dose-only effect; inactive means no such curve, though single readings can be large or run the other way. A potency beside an inconclusive call is a rough fit, not a confirmed value.
Test: qHTS Assay for Enhancers of SMN2 Splice Variant Expression; further: nearly all actives have a fitted effect of over 55% in size
Conditions: HEK293 SMN2-luciferase splicing reporter, luminescence, 30-36 h; series mostly up to 46.1 µM
Summary of the method: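 HEK293 cells carry an SMN2 minigene-luciferase reporter in which exon 7 inclusion puts luciferase in frame. Cells were seeded at 2000 cells/well, attached for 10-12 hours, then exposed to compounds for 30-36 hours at 37C before ONE-Glo luminescence.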
With `CC(=O)N1CC2(CC(=O)OC(C)C)CN(C(C)=O)CC(CC(=O)OC(C)C)(C1)C2=O` the Potency was inconclusive: 35.5 µM [activator, single point]. For `Cc1ccc(CNC(=O)Cc2csc3ccccc23)cc1`, the Potency was inconclusive: 14.1 µM [activator, partial curve, poor fit]. In the case of `CC(C)=CC(=O)Nc1nnc(-c2ccc(F)cc2)s1`, the Potency is reported as inconclusive: 12.6 µM [activator, partial curve]. With `Cc1ccccc1NC(=O)Cn1c(=O)n(CCc2ccccc2)c(=O)c2ccccc21` the Potency was “inactive”. For `C=CCn1cnc2c(NCc3ccccc3)ncnc21`, the Potency was inconclusive: 11.2 µM [activator, partial curve, poor fit]. In the case of `COCCCNC(=O)C1CCN(S(=O)(=O)c2c(C)noc2/C=C\c2ccc(OC)cc2)CC1`, the Potency is reported as inconclusive: 7.94 µM [activator, full curve]. With `COc1ccc(OC)c(Nc2sc(C(=O)c3ccccc3)c(N)c2S(=O)(=O)c2ccccc2)c1` the Potency was “inactive”. For `Cc1c(CC(C)C)nc(N)c(C#N)c1-c1ccccc1`, the Potency was inconclusive: 35.5 µM [activator, single point]. With `CC12CCC(C(=O)Nc3nc4ccccc4s3)(OC1=O)C2(C)C` (stereo not given) the Potency was inconclusive: 12.6 µM [activator, partial curve]. In the case of `C/C(CC(=O)Nc1ccccn1)=N\NC(=O)c1ccccc1`, the Potency is reported as inconclusive: 3.55 µM [activator, single point]. With `COc1ccc(C(=O)CC2(O)C(=O)N(Cc3cccc(C(F)(F)F)c3)c3ccccc32)cc1` (stereo not given) the Potency was “inactive”. In the case of `O=C(Nc1c(Cl)cc(Cl)cc1-c1nc2ccccc2s1)c1ccc(Br)o1`, the Potency is reported as inconclusive: 28.2 µM [activator, single point]. With `Cc1ccc(CN2CCc3c(OCc4ccc(F)cc4)cccc3C2=O)cc1` the Potency was “inactive”. In the case of `CCOc1ccc(OCCCC(=O)NC2=NCCS2)cc1`, the Potency is reported as inconclusive: 3.98 µM [activator, partial curve, poor fit]. In the case of `COC(=O)c1ccccc1NC(=O)c1cccc(COc2ccccc2Cl)c1`, the Potency is reported as active: 11.2 µM. For `Cc1ccc(NC(=O)C2Cc3ccccc3C(=O)O2)cc1` (stereo not given), the Potency was “inactive”. In the case of `CC(=Nc1ccc(C)c(C)c1)C1=C(O)CCC1=O`, the Potency is reported as “inactive”. With `CCN(CC)c1ccc(-c2c(C#N)c(N)nc(OC)c2C#N)cc1` the Potency was inconclusive: 35.5 µM [activator, single point]. In the case of `C=CCNC(=S)NC(=O)c1oc2ccccc2c1C`, the Potency is reported as inconclusive: 14.1 µM [activator, single point]. For `Cn1c(SCc2ccccc2)nnc1-c1c[nH]c2ccccc12`, the Potency was inconclusive: 11.2 µM [activator, partial curve, poor fit]. With `COc1cccc(C(=O)NCCC2=CCCCC2)c1` the Potency was inconclusive: 1.41 µM [activator, partial curve]. For `CCCOc1ccc(C(=O)NCC(c2ccco2)N(C)C)cc1` (stereo not given), the Potency was “inactive”. In the case of `O=C(COc1ccccc1)Nc1cccc(-c2nnc(-c3ccccc3)o2)c1`, the Potency is reported as inconclusive: 22.4 µM [activator, partial curve, poor fit]. For `Cc1ccc2nsnc2c1NC(=O)c1cccc([N+](=O)[O-])c1`, the Potency was “inactive”. With `O=C(CN1C(=O)c2ccccc2C1=O)Nc1ccccc1C(=O)NC1CCCCC1` the Potency was inconclusive: 5.62 µM [activator, full curve, poor fit]. With `Cc1cc(=O)[nH]c(SCCOc2ccc(OC(C)C)cc2)n1` the Potency was inconclusive: 3.16 µM [activator, full curve]. For `CN(C(=O)Nc1cnc2ccccc2c1)c1ccccc1`, the Potency was inconclusive: 12.6 µM [activator, single point]. In the case of `Cc1ccc(C(=O)/C=C/c2c[nH]c3ccccc23)cc1`, the Potency is reported as inconclusive: 17.8 µM [activator, single point]. With `O=C(COC(=O)c1ccc(S(=O)(=O)N2CCOCC2)cc1)Nc1nc(-c2ccccc2)cs1` the Potency was inconclusive: 35.5 µM [activator, single point]. With `Brc1ccc(-c2nc(-c3cccnc3)no2)o1` the Potency was inconclusive: 15.8 µM [activator, single point]. In the case of `COc1ccccc1C1Nc2c(sc3nc(C)cc(C)c23)C(=O)N1c1ccccc1` (stereo not given), the Potency is reported as active: 12.6 µM. With `CCC(C)Sc1oc(-c2ccco2)nc1S(=O)(=O)c1ccc(C)cc1` (stereo not given) the Potency was “inactive”. For `COc1ccc(OCC(=O)Nc2cc(-c3nc4ccccc4s3)ccc2C)cc1`, the Potency was inconclusive: 5.01 µM [activator, single point]. For `Cc1ccc(-c2onc3ccc(C=O)cc23)cc1`, the Potency was inconclusive: 3.16 µM [activator, partial curve]. For `COCCNC(=S)Nc1ccc(N2CCCCC2)cc1`, the Potency was inconclusive: 31.6 µM [activator, single point]. With `Nn1c(COc2ccc(Cl)cc2)nc2ccccc2c1=O` the Potency was active: 14.1 µM. In the case of `COC(=O)N/N=C/c1cccnc1`, the Potency is reported as inconclusive: 1.26 µM [activator, full curve, poor fit]. With `Cc1noc(/C=C/N(C)C)c1S(=O)(=O)NC1CCCCC1` the Potency was inconclusive: 35.5 µM [activator, single point]. For `CC1=C(C(=O)OCCOc2ccccc2)C(c2ccsc2)NC(=O)N1C` (stereo not given), the Potency was “inactive”. In the case of `Nc1ccc(-c2nc3c(Cl)c(N)ccc3[nH]2)cc1`, the Potency is reported as inconclusive: 35.5 µM [activator, single point]. For `CC(=O)c1cccc(NC(=S)NC(=O)c2ccc(C)cc2Cl)c1`, the Potency was inconclusive: 20 µM [activator, single point]. For `CCOC(=O)c1ccc(NC(=O)c2ccccc2[N+](=O)[O-])cc1`, the Potency was active: 17.8 µM. In the case of `Cc1cc(C)nc(Nc2ncc(O)n2-c2ccc(C)c(C)c2)n1`, the Potency is reported as inconclusive: 0.0035 µM [activator, full curve, poor fit]. For `O=C(Nc1ccc2nn(-c3ccccc3)nc2c1)c1cccs1`, the Potency was inconclusive: 12.6 µM [activator, partial curve, poor fit]. In the case of `CCOC(=O)N1CCN(C(=O)CSc2nnc(-c3cc(OC)cc(OC)c3)o2)CC1`, the Potency is reported as inconclusive: 0.794 µM [activator, full curve, poor fit].
Potency means the concentration at half of the fitted maximal effect; tags describe the fitted curve by direction and shape.
